Data from ChEMBL document CHEMBL1961873, “Compounds: GSK PKIS; Assays: Nanosyn kinase panel” (2012).
What follows is the remainder of the data, with few or none of the strong results.
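Also: values are averaged percent inhibition of TNK1, compounds from the GSK published kinase inhibitor set.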

These molecules were tested against T1, Non-receptor tyrosine-protein kinase TNK1 (Homo sapiens) (UniProt Q13470). Conditions: at 1 µM.
T1 sequence (whole entry): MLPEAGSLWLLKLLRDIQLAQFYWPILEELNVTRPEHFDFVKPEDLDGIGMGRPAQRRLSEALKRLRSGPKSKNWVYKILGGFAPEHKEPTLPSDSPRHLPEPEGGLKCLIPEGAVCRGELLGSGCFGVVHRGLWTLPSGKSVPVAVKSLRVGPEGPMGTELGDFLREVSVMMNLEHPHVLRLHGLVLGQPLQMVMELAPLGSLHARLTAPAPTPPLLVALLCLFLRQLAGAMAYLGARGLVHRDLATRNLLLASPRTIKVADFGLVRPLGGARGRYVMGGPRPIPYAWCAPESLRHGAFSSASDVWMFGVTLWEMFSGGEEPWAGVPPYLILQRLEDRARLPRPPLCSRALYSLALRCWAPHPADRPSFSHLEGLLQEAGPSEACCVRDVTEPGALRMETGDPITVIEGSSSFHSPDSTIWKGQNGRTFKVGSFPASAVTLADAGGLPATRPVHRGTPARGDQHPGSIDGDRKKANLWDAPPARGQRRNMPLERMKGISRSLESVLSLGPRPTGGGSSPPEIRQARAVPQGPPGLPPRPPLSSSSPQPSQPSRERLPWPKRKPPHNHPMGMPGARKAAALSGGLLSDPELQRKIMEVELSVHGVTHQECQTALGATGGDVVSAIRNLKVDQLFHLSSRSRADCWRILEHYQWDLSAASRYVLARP
Cc1cccc(Oc2nccc(-c3c(-c4ccc(F)cc4)ncn3C3CCNCC3)n2)c1C was tested, and the inhibition was 6.06%. For Fc1ccc(-c2ncn(C3CCNCC3)c2-c2ccnc(Oc3cccc(F)c3)n2)cc1, the inhibition was 4.41%. O=C(O)c1ccc(Oc2nccc(-c3c(-c4ccc(F)cc4)ncn3C3CCNCC3)n2)cc1 showed an inhibition of 4.92%. Molecule Fc1ccc(-c2ncn(C3CCNCC3)c2-c2ccnc(Oc3cccc(C(F)(F)F)c3)n2)cc1 has an inhibition of 6.8%. CC(C)(C)c1ccc(Oc2nccc(-c3c(-c4ccc(F)cc4)ncn3C3CCNCC3)n2)cc1 showed an inhibition of 3.9%. O=C1NC(=O)C(c2cccc([N+](=O)[O-])c2)=C1Nc1cc(Cl)c(O)c(Cl)c1 was tested, and the inhibition was 16.7%. In the case of Fc1ccc(Oc2nccc(-c3c(-c4ccc(F)cc4)ncn3C3CCNCC3)n2)cc1, the inhibition was 1.8%. Work on O=C1NC(=O)C(c2ccccc2)=C1Nc1ccccc1 yielded an inhibition of 9.19%. Work on COc1ccccc1C1=C(Nc2ccccc2)C(=O)NC1=O yielded an inhibition of 16.1%. Fc1ccc(-c2ncn(C3CCNCC3)c2-c2ccnc(Oc3ccc(Cl)cc3)n2)cc1 was tested, and the inhibition was 1.53%. In the case of CS(=O)(=O)c1ccc(Oc2nccc(-c3c(-c4ccc(F)cc4)ncn3C3CCNCC3)n2)cc1, the inhibition was 2.97%. Molecule O=C1NC(=O)C(c2ccccc2Cl)=C1Nc1cc(Cl)c(O)c(Cl)c1 has an inhibition of 11.5%. NC(=O)CCc1ccccc1Oc1nccc(-c2c(-c3ccc(F)cc3)ncn2C2CCNCC2)n1 was tested, and the inhibition was -3.9%.
